The text below walks through data of PMC3422510 (Developmental cell, 2012).

This experiment addresses HA-Sec5 (UniProt O54921 1-924). The experiment in a line: co-IP.
UniProt O54921, sequence (O54921 whole entry): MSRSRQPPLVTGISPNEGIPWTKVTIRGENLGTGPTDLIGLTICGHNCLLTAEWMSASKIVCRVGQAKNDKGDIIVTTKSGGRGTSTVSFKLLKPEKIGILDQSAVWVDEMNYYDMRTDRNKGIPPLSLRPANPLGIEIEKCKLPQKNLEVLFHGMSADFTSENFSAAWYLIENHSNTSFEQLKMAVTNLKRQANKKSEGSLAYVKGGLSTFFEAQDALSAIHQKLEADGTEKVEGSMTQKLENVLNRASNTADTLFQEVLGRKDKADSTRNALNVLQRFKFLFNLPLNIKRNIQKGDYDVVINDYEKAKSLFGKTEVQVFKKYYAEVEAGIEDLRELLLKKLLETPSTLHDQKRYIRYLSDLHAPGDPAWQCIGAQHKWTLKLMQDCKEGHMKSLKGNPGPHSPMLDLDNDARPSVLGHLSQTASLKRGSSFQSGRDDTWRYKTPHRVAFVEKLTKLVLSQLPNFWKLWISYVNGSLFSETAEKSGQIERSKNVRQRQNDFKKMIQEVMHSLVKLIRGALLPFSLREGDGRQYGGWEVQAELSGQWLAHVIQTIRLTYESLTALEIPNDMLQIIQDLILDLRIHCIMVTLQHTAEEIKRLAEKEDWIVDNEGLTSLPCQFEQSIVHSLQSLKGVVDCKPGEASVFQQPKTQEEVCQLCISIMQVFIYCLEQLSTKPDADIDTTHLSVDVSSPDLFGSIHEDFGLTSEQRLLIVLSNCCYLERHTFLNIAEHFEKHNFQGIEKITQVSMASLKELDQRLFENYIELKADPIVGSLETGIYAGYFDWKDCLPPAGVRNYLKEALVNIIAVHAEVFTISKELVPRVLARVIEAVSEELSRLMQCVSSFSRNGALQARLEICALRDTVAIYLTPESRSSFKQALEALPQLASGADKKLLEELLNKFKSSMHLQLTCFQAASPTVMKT

B1: GFP-RhoA^Q63L (natural protein)
chain: not shown
Turning to B1, the “fold by which RhoA wt interacts more than this mutant” value came to 10 fold.

B2: GFP-RhoA^T19N (natural protein)
chain: not shown
Consider B2, for which the “fold by which RhoA wt interacts more than this mutant” value amounted to 10 fold.
